From PubChem BioAssay AID1745853 (National Center for Advancing Translational Sciences (NCATS), 2022)
The other results are listed elsewhere or left out. The main result of the screen is listed elsewhere. These columns were measured beside it and carry no call.

Tests used:
Assay in all cases: Primary Screen for Target Class Profiling of Small Molecule Inhibitors of Methyltransferases
[1] = target: Guanidinoacetate N-methyltransferase (Homo sapiens) (UniProt Q14353); settings: purified enzyme, MTase-Glo SAH luminescence; measured here: GAMT inhibition; at 40 µM; stronger effect = lower value
Excerpt: (§1) PI: Matthew D. Hall Ph.D. and Quinlin M. Hanson Ph.D.
(§2) National Center for Advancing Translational Sciences (NCATS)
(§3) National Institute of Health (NIH), Rockville, MD
(§4) Target class profiling (TCP) is a chemical biology approach amenable to investigating understudied biological targets. TCP is achieved by developing a generalizable assay platform and applying it to screen a curated set of compound libraries against representative members of a target class. Small molecule methyltransferases (SMMTase) are a subclass of methyltransferase that act on metabolites to modulate signaling pathways, metabolize xenobiotics, or balance the available methyl pool. We screened four curated libraries totaling 27,574 unique compounds against the SMMTases nicotinamide N-methyltransferase (NNMT), phenylethanolamine N-methyltransferase (PNMT), histamine N-methyltransferase (HNMT), glycine N-methyltransferase (GNMT), catechol O-methyltransferase (COMT), and guanidinoacetate N-methyltransferase (GAMT). The data generated by this TCP can be leveraged for informed tool molecule development. For example, in the associated publication we identified a chemotype of HNMT-selective inhibitors. Additionally, we identified a putative SMMTase-selective inhibitor with potential as a tool molecule for studying broader methyltransferase biology.
(§5) High-through put screening assays were developed at the National Center for Advancing Translational Science (NCATS) for the enzymes NNMT, PNMT, HNMT, GNMT, COMT, and GAMT. Enzymatic activity was measured as a function of SAM cofactor conversion using the MTase Glo kit (Promega) for all enzymes. All assays were performed in 1536-well format with substrates and SAM concentrations at KM values. Enzyme concentration and assay timing were optimized for 10-20% SAM conversion. Initial screening of 27,574 compounds was done as single-point assays using the highest compound concentration (40 uM). […] These compounds were replated in 11-point dose response and assayed against NNMT, PNMT, HNMT, GNMT, COMT, GAMT, and a counter-assay. The IC50 and efficacy (maximal response) values were determined for each dose-response curve. These values are also accounted for in the area under the curve (AUC) values.
(§6) PROTOCOL TABLE (as described by Inglese J, Shamu CE and Guy RK. 2007)
(§7) SEQUENCE No. (e.g., 1, 2, 3, etc.); […] (e.g., Cells, Incubation, Reagent, etc.); VALUE; DESCRIPTION.
(§8) 1; Reagent; 2 uL; SMMTase Enzyme (2x) in reaction buffer, columns 1- 48.
(§9) 2; Reagent; 1 uL; SAM (4x) in reaction buffer, columns 1-48.
(§10) 3; Controls; 23 nL; DMSO in column 4; sinefungin in DMSO (0 uM - 40 uM) in 7-point 1:2 dilution series (n = 2) in column 2.
(§11) 4; Compounds; 23 nL; Columns 5-48.
(§12) 5; Reagent; 1 uL; Substrate (4x) in reaction buffer, columns 2-48.
(§13) 6; Time; 20-30 min; Incubation.
(§14) 7; Reagent; 1 uL; MTase-Glo reagent (5X), columns 1-48.
(§15) 8; Time; 30 min; Incubation.
(§16) 9; Reagent; 5 uL; MTase-Glo Detection reagent, columns 1-48.
(§17) 10; Time; 30 min; Incubation, luminescence evolution.
(§18) 11; Detection; Luminescence; ViewLux uHTS Microplate Imager (PerkinElmer).
(§19) NOTES (numbers refer to Sequence numbers above)
(§20) 1, 2, 5. White Medium Binding Greiner 1536-well plates (Cat #789175-F, Greiner Bio-One, Monroe, NC); Reaction buffer: 50 mM Tris, pH 8.0, 3 mM MgCl2, 1 mM EDTA, 50 mM NaCl, 1 mM DTT, and 0.1 mg/mL BSA. Evaporation was prevented by covering assay plates with metal lids containing holes to allow gas diffusion.
(§21) 1. Six SMMTase were profiled: HNMT, GNMT, PNMT, COMT, NNMT, GAMT
(§22) 5. The corresponding substrate was used for each enzyme: HNMT - 5.3 uM Histamine; GNMT - >500 uM Glycine; PNMT - 16.2 uM Norephinephrine; COMT - 13.7 uM Norephinephrine; NNMT - 3.8 uM Nicotinamide; GAMT - 2.5 uM Guanidinoacetate.6, 8, 10. Room temperature
(§23) 6. Final reaction conditions: 10 nM COMT, 5 uM SAM, 15 uM norepinephrine, 50 mM Tris, pH 8.0, 3 mM MgCl2, 1 mM EDTA, 50 mM NaCl, 1 mM DTT, and 0.1 mg/mL BSA; refer to tables 2 and S1 for specific timing.
8. […]

[2] = target: Nicotinamide N-methyltransferase (Homo sapiens) (UniProt P40261); settings: purified enzyme, MTase-Glo SAH luminescence; measured here: NNMT inhibition; at 40 µM; stronger effect = lower value
Excerpt: as §1, §2, §3, §4, §5, §6, §7, §8, §9, §10, §11, §12, §13, §14, §15, §16, §17, §18, §19, §20, §21, §22, §23
8. […]

[3] = target: Phenylethanolamine N-methyltransferase (Homo sapiens) (UniProt P11086); settings: purified enzyme, MTase-Glo SAH luminescence; measured here: PNMT inhibition; at 40 µM; stronger effect = lower value
Excerpt: as §1, §2, §3, §4, §5, §6, §7, §8, §9, §10, §11, §12, §13, §14, §15, §16, §17, §18, §19, §20, §21, §22, §23
8. […]

[4] = target: Glycine N-methyltransferase (Homo sapiens) (UniProt Q14749); settings: purified enzyme, MTase-Glo SAH luminescence; measured here: GNMT inhibition; at 40 µM; stronger effect = lower value
Excerpt: as §1, §2, §3, §4, §5, §6, §7, §8, §9, §10, §11, §12, §13, §14, §15, §16, §17, §18, §19, §20, §21, §22, §23
8. […]

[5] = target: Histamine N-methyltransferase (Homo sapiens) (UniProt P50135); settings: purified enzyme, MTase-Glo SAH luminescence; measured here: HNMT inhibition; at 40 µM; stronger effect = lower value
Excerpt: as §1, §2, §3, §4, §5, §6, §7, §8, §9, §10, §11, §12, §13, §14, §15, §16, §17, §18, §19, §20, §21, §22, §23
8. […]
% is scaled to controls: 0 for no effect and ±100 for the full control effect.

SMILES	activity change, negative = inhibition [1] [%]	activity change, negative = inhibition [2] [%]	activity change, negative = inhibition [3] [%]	activity change, negative = inhibition [4] [%]	activity change, negative = inhibition [5] [%]
CC[C@]1(O)C[C@H]2CN(CCc3c([nH]c4ccccc34)[C@@](C(=O)OC)(c3cc4c(cc3OC)N(C=O)[C@H]3[C@@](O)(C(=O)OC)[C@H](OC(C)=O)[C@]5(CC)C=CCN6CC[C@]43[C@@H]65)C2)C1	2.55	-3.64	3.95	–	–
CCC1(C)CC(CC(=O)O)(c2ccccc2OC)CCO1 (stereo not drawn)	2.5	13.4	2.29	5.46	4.19
COc1ccc(CCN2C(=O)c3cc4ccccc4n3CC2(C)C(=O)NC2CCCCC2)cc1OC (stereo not drawn)	0	-20.3	2.43	-4.49	5.92
N#Cc1ccc(-c2ccc(S(=O)(=O)Nc3cccc(N)n3)cc2)cc1	4.09	-21	-9.83	-2.59	10
O=S(=O)(NCc1ccccn1)c1ccc(Br)c2ccccc12	5.73	-19	-3.49	-4.6	4.27
C=C1CC[C@H]2[C@@](C)(CCC[C@@]2(C)C(=O)O)[C@@H]1CCC(C)CCO (stereo partly drawn)	-18.5	-35	-5.64	-1.15	-5.15
CNC(=O)c1cccn2cncc12	-10.4	-22.7	-15	-8.69	-2.57
Cc1noc2c(N3CCOCC3)cc(-c3cccs3)nc12	-21.2	-50.8	-2.35	-9	-3.72
C=C1/C(=C/C=C2\CCC[C@]3(C)[C@@H]([C@H](C)/C=C/[C@@H](C)C(C)C)CC[C@@H]23)C[C@@H](O)C[C@@H]1O	6.55	-15.1	-0.388	-17.1	3.04
O=C(NC[C@H]1COCc2nc3cc(F)ccc3n21)C1CC1	-2.19	-0.699	-1.17	-2.54	0.243
CC1(CO)CC[C@]2(C(=O)O[C@@H]3O[C@H](CO)[C@@H](O)[C@H](O)[C@H]3O)CC[C@]3(C)C(=CCC4[C@@]5(C)C[C@H](O)[C@H](O[C@@H]6OC[C@@H](O)[C@H](O)[C@H]6O)[C@@](C)(CO)C5CC[C@]43C)C2C1 (stereo partly drawn)	7.22	-6.09	3.05	0	8.49
Cn1nccc1CCC(=O)N1CCN(C(=O)C2CCC2)[C@@H]2CS(=O)(=O)C[C@@H]21	-1.3	-4.93	-2.31	-1.1	0.998
Nc1nc(C2CC(O)C2)cc(N2CC(N3CCOCC3)C2)n1 (stereo not drawn)	-4.5	-3.3	-9.76	-1.6	-0.981
CN(Cc1cccn1C)C(=O)Nc1ccc(Cl)cc1	-3.29	-3.04	-9.03	-6.26	-1.75
O=C(CCC1CCCN(S(=O)(=O)c2ccccc2F)C1)NCCCN1CCCC1=O (stereo not drawn)	4.02	-2.4	-2.72	0.863	-0.418
COc1ccc(N2C(=O)c3cc4occc4n3CC2(C)C(=O)NC2CCCCCC2)cc1OC (stereo not drawn)	0	4.8	2.87	1.93	8.49
COCCNCc1ccc(-c2cc3nccc(Oc4ccc(NC(=O)C5(C(=O)Nc6ccc(F)cc6)CC5)cc4F)c3s2)nc1	5.63	-10.3	4.68	-4.99	4.13
COCc1nn(CC(=O)NC(C)Cc2cc(C)[nH]n2)c(=O)n1-c1ccccc1 (stereo not drawn)	-11.2	-14.3	-12.1	-4.09	-2.83
C=C(C(=O)O)C1CCC2(C)CCCC(C)(O)C2C1 (stereo not drawn)	-7.77	-18.4	1.23	-2.54	5.37
CC12CCC(OC3OC(CO)C(O)C(OC4OC(CO)C(O)C(O)C4O)C3O)CC1CCC1C2CCC2(C)/C(=C3/COC(=O)C3)CCC12O (stereo not drawn)	0.378	-11.7	-5.88	3.87	11.5
COc1ccccc1CN1C(=O)c2cc(C(C)(C)C)nn2CC1(C)C(=O)NC1CCCCCC1 (stereo not drawn)	4.85	0.496	2.21	4.87	6
CC(C)[C@@](C)(O)[C@@H]1CN(c2nc(-c3[nH]nc4ncccc34)c(F)cc2Cl)CCN1	-45.9	-55.4	-63.9	-50.5	-63
CNC(=O)[C@@H]1C[C@@H](n2cc(CNC(=O)Cc3ccc(F)cc3)nn2)CN1	0.782	-3.66	12.4	-0.507	2.31
O=c1c2ccccc2n2c(=O)n(Cc3ccccc3)nc2n1CCc1ccccc1	-1.8	-5.57	-3.38	-3.88	1.85
COC(=O)c1cc2n(n1)CC(C)(C(=O)NC1CCCCCC1)N(c1cccc(C)c1C)C2=O (stereo not drawn)	-0.566	-4.19	-3.99	-2.24	3.08
Cc1ccccc1CN1C(=O)c2nc3ccccc3n2CC1(C)C(=O)NC1CCCCC1 (stereo not drawn)	1.74	2.84	-1.77	3.62	4.64
Cc1cccc(C)c1OCC(C)N (stereo not drawn)	3.1	-6.37	-9.4	-1.93	1.35
CCCn1c(=O)c2ccc(C(=O)NCC(C)C)cc2n2c(=O)n(Cc3cc(C)ccc3C)nc12	3.75	-2.8	-0.997	3.86	4.1
